Out of some 110,000 compounds screened, about 230 (0.21%) showed an effect of 50% or more. The list shows a part of the results.
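Further: 30 min substrate incubation versus DMSO and 10 µM JCP410 controls.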

For this assay, the target named is DPAP1 (Plasmodium falciparum, UniProt Q8IIJ9). Description: primary screen, percent inhibition; read by cleavage of a fluorogenic dipeptide substrate; higher = more effect of the substance. Also noted: species or system P. falciparum D10 trophozoite lysates; single well.
Chain of DPAP1 (Q8IIJ9 whole entry, looked up): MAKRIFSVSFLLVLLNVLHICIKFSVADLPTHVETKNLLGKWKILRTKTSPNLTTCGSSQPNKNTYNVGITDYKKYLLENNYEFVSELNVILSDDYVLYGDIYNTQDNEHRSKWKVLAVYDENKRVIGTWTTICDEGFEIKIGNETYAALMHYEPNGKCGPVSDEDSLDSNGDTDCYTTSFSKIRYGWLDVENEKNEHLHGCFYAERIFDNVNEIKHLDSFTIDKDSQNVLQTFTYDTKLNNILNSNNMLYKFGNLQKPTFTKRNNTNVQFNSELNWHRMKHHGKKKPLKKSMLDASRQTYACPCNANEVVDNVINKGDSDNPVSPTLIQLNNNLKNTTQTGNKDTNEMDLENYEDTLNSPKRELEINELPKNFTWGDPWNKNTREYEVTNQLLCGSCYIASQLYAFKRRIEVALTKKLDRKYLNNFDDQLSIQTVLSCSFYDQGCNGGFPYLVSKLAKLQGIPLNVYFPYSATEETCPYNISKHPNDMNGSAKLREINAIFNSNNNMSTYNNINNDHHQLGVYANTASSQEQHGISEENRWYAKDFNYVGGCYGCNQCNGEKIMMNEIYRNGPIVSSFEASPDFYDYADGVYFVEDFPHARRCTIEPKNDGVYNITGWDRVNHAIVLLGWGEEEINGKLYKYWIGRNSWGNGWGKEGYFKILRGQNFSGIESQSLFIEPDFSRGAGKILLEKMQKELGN
Take `CCOC(=O)N1CCN(C(=O)c2ccc3c(Cl)c4c(nc3c2)CCCC4)CC1`: the “% Inhibition @ 10 uM” value is -2.45%. With `CC(=O)N1CCN(CC/N=C/C2=C(O)CC(c3ccco3)CC2=O)CC1` (centres unmarked), the “% Inhibition @ 10 uM” value came to 0.121%.

In the case of `COC(=O)c1c(-c2ccc(C)cc2)csc1N`, the “% Inhibition @ 10 uM” value was determined as 10.2%. With `COc1cc(SC)ccc1C(=O)N1CCCCCC1`, the “% Inhibition @ 10 uM” value is given as -2.15%. On to `CCN(CC)CCNc1nc2cc(Cl)ccc2[nH]1`, for which the “% Inhibition @ 10 uM” value is 4.88%. The same measure for `O=[N+]([O-])c1ccccc1S(=O)(=O)N1CCCC1`: 6.31%; for `CN(Cc1ccccc1)C(=O)c1ccc(CNS(=O)(=O)c2ccc(Br)cc2)cc1`: -7.16%. For the compound `Cc1cccc(CCNC(=O)c2nn(C)c3c2CS(=O)(=O)c2ccccc2-3)c1`, the “% Inhibition @ 10 uM” value was determined as 5.82%. The value for `O=C(Nc1ccc(Cl)cc1)Nc1cccc(C(F)(F)F)c1` was -4.01%; that for `CCOC(=O)c1cc(C)n(CC2CCC(C(=O)NCc3cccnc3)CC2)c1C` (centres unmarked) was -0.241%.

Consider `O=C(NCc1ccco1)C1CCN(S(=O)(=O)c2ccc(Cl)cc2)CC1`, for which the “% Inhibition @ 10 uM” value worked out at 2.38%. In the case of `Cc1ccc2[nH]c3c(c2c1)CCc1nc(O)c(C#N)cc1-3`, the “% Inhibition @ 10 uM” value is listed as 2.86%.

As to `O=C(O)c1cccc(NS(=O)(=O)c2ccc(S(=O)(=O)N3CCOCC3)cc2)c1`, the “% Inhibition @ 10 uM” value was -3.39%.

In the case of `O=S(=O)(c1ccccc1)N(C1CCCC1)C1CCCC1`, the “% Inhibition @ 10 uM” value was determined as 2.23%. Turning to `CC[C@H](NC(=O)[C@H](CC1(C)CCCC1)/N=C(\C)NS(=O)(=O)c1ccccc1)C(=O)c1nc2ccccc2o1`, the “% Inhibition @ 10 uM” value is recorded as -8.36%. In the case of `Cc1nc2ncnn2c(C)c1CCC(=O)N1CCc2ccccc2C1`, the “% Inhibition @ 10 uM” value came to 4.54%. The value for `CCOC(=O)/C(C#N)=C\c1c2ccccc2cc2ccccc12` was 2.76%; that for `CC(=O)c1c(S)nc(-c2ccccc2)nc1N1CCN(C)CC1` was 2.05%; that for `CCOC(=O)Cn1c(=O)sc2ccccc21` was 0.135%. As for `CN(C)CCCNC(=O)c1cc2ccccc2oc1=O`, the “% Inhibition @ 10 uM” value is -3.53%. The value for `CNC(=O)c1sc2nc(-c3ccccc3)cn2c1C` was 3.19%.

In the case of `O=C(CCc1c[nH]c2ccccc12)NCc1ccco1`, the “% Inhibition @ 10 uM” value is 1.92%. The same measure for `CCn1cc(C=O)c2cc(S(=O)(=O)N3CCOCC3)ccc21`: 2.5%; for `c1ccc2c3c([nH]c2c1)CCCCC3`: -1.44%.

As to `Oc1ccnc2c1ccc1nsnc12`, the “% Inhibition @ 10 uM” value was determined as 4.12%.

On to `Cn1c(=O)[nH]c(=O)c2c1nc(N1CCNCC1)n2CCCc1ccccc1`, for which the “% Inhibition @ 10 uM” value is -6.22%. In the case of `Cc1cccc2sc(N(CCCN(C)C)C(=O)c3ccc(S(=O)(=O)N(C)C)cc3)nc12`, the “% Inhibition @ 10 uM” value is recorded as -0.0255%. Regarding `Cc1nnc(NC(=O)CSc2nc3c(c(=O)n2Cc2ccccc2)SCC3)s1`, the “% Inhibition @ 10 uM” value was 9.4%. The same measure for `COC(=O)C1=C(C)N(Cc2ccccc2)C(=O)C1(NC(=O)c1ccc(C(C)(C)C)cc1)C(F)(F)F` (centres unmarked): 0.221%.

Values taken from article PMC6919601, “Identification of Plasmodium dipeptidyl aminopeptidase allosteric inhibitors by high throughput screening” (PLoS ONE, 2019).
